This passage reports cytotoxicity call and growth inhibition call results from the antibiotic and cytotoxicity screens of Wong et al. (2023).

One assay deals with HSkMC. As to the kind of experiment: cytotoxicity call (relative viability < 0.9). To be noted: 10 µM.
Another assay relates to HepG2. As to the kind of experiment: cytotoxicity call (relative viability < 0.9). To be noted: 10 µM.
A further assay deals with S. aureus RN4220. As to the kind of experiment: growth inhibition call (relative growth <= 0.2). To be noted: 50 µM.

Molecules are shown by their SMILES. The list shows a part of the results.

With `COc1ccc(NC(=O)N(C)C[C@@H]2OCCCC[C@@H](C)Oc3ccc(NC(=O)Nc4cccc5ccccc45)cc3C(=O)N([C@@H](C)CO)C[C@@H]2C)cc1`, the cytotoxicity call with HSkMC and in the assay on HepG2 was “inactive” throughout. Also, the growth inhibition call in the assay on S. aureus RN4220 was “inactive”.

On to `COC(=O)C1=CO[C@@H](O[C@@H]2O[C@H](CO)[C@@H](O)[C@H](O)[C@H]2O)[C@@H]2[C@@H](C)[C@@H](OC(=O)/C=C/c3ccc(O)cc3)[C@@H](O)[C@H]12`, for which the cytotoxicity call in the assay on HSkMC and with HepG2 was “inactive” each time. Also, in the assay with S. aureus RN4220, the growth inhibition call was “inactive”.

Take `CC(=O)c1ccc(OCc2c(-c3ccccc3)nnn2CC(=O)NS(=O)(=O)c2ccc(F)cc2)cc1`: the cytotoxicity call with HSkMC and in the assay on HepG2 was “inactive” each time. The growth inhibition call with S. aureus RN4220 is “inactive”.

As to `CC1=C(C#N)C(=O)NC(=O)C1=NNc1ccc(S(N)(=O)=O)cc1`, the cytotoxicity call in the assay on HSkMC and in the assay with HepG2 was “inactive” each time. Besides, in the assay with S. aureus RN4220, the growth inhibition call was “inactive”.

Turning to `C[C@@H]1CN([C@@H](C)CO)C(=O)c2cc(C#CC3CCCCC3)cnc2O[C@@H]1CN(C)C(=O)Cc1ccccn1`, the cytotoxicity call in the assay on HSkMC and in the assay on HepG2 was “inactive” in each case. The growth inhibition call with S. aureus RN4220 is “inactive”.

Take `O=C1C(O)=C(O)C(=O)C(O)=C1O`: the cytotoxicity call in the assay on HSkMC is “inactive”. In the assay on HepG2, the cytotoxicity call was “active”. Moreover, in the assay on S. aureus RN4220, the growth inhibition call was “inactive”.

As to `C[C@H](CO)N1C[C@H](C)[C@@H](CN(C)C(=O)Nc2cccc(F)c2)Oc2ncc(Br)cc2C1=O`, the cytotoxicity call in the assay with HSkMC and with HepG2 was “inactive” in each case. Also, the growth inhibition call in the assay with S. aureus RN4220 was “inactive”.

`COc1ccc(S(=O)(=O)Nc2ccc3c(c2)C(=O)N([C@@H](C)CO)C[C@@H](C)[C@@H](CN(C)S(=O)(=O)c2cn(C)cn2)OCCCC[C@H](C)O3)cc1`: the cytotoxicity call in the assay with HSkMC and in the assay on HepG2 was “inactive” each time. Moreover, in the assay on S. aureus RN4220, the growth inhibition call was “inactive”.

Regarding `CC(=O)N(C)C[C@H]1Oc2cc(C#CCN(C)C)ccc2S(=O)(=O)N([C@@H](C)CO)C[C@H]1C`, the cytotoxicity call in the assay on HSkMC and with HepG2 was “inactive” each time. For the same compound, in the assay on S. aureus RN4220, the growth inhibition call was “inactive”.

For `O=C1NCCN1c1ncc([N+](=O)[O-])s1`, the cytotoxicity call with HSkMC and in the assay with HepG2 was “inactive” each time. Also, the growth inhibition call with S. aureus RN4220 is “inactive”.

In the case of `CCCCOC(=O)CCCCCCC(=O)OCCCC`, the cytotoxicity call in the assay with HSkMC and in the assay on HepG2 was “inactive” throughout. The growth inhibition call in the assay with S. aureus RN4220 is “inactive”.

On to `COc1cccc(C#Cc2cnc3c(c2)C(=O)N([C@H](C)CO)C[C@H](C)[C@@H](CN(C)C(=O)C2CCOCC2)O3)c1`, for which the cytotoxicity call in the assay on HSkMC (human skeletal muscle cells) and in the assay on HepG2 was “inactive” in each case. For the same compound, in the assay with S. aureus RN4220, the growth inhibition call is “inactive”.
